According to PubChem BioAssay AID686979 (National Center for Advancing Translational Sciences (NCATS), 2013):
In all, about 420,000 compounds went through this assay and about 50,000 (12%) were called active. The inconclusive results got no clear call from the source; some entries with a clear call stand among them for comparison. The call rests on the fitted dose curve; in most records, active means well fitted inhibition curve with a large enough effect; inconclusive means small, poorly fitted or top-dose-only effect; inactive means flat fitted curve, though single readings scatter. No potency is given beside an inconclusive call; the fits are too rough.
On the % scale 0 is the no-effect control and ±100 the full control effect; potency means the concentration at half of the fitted maximal effect; tags describe the fitted curve by direction and shape.

Assay: qHTS for Inhibitors of human tyrosyl-DNA phosphodiesterase 1 (TDP1): qHTS in cells in presence of CPT; further: nearly all actives have a fitted effect of over 55% in size
Conditions: chicken DT40 Tdp1-/-;hTDP1 cells + 20 nM CPT, ATP luminescence, 48 h; activity change, negative = growth inhibition: at 46.2 µM (top of the series)
Method in brief: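 Chicken DT40 Tdp1-/- cells stably complemented with human TDP1 were seeded at 400 cells/well in medium containing 20 nM camptothecin, exposed to pin-transferred compounds, and grown at 37 °C for at least 48 hr. Viability was read as ATP luminescence.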
For `Cc1nc2nc(NCc3ccccc3Cl)[nH]n2c(=O)c1Cc1ccccc1`, the “activity change, negative = growth inhibition” value was inactive: -3.99%. For `O=C(O)Cc1nc(-c2cccnc2)sc1-c1ccc(Br)cc1`, the Potency was inconclusive [inhibitor, single point]. For `COc1ccc(OCCSc2nc(C)nc3ccccc23)cc1`, the Potency was inconclusive [inhibitor, single point]. For `CC(C)C[C@@H](COc1ccccc1)N1CCN(CCc2ccccc2)CCC1=O`, the Potency was active: 11.2 µM. For `O=C(NCc1ccc(F)cc1)c1cc(C2CCCCN2S(=O)(=O)c2ccccc2)on1` (centres undefined), the Potency was inconclusive [inhibitor, single point]. For `O=C(Nc1ccccc1OCc1cc(=O)n2ccccc2n1)Nc1ccccc1C(F)(F)F`, the “activity change, negative = growth inhibition” value was inactive: 4.85%. In the case of `O=C(NCCc1ccccc1)c1cccc(NC(=O)C2CCCCC2)c1`, the Potency is reported as inconclusive [inhibitor, single point]. For `CC(=O)c1ccc(NC(=O)CNCC(c2ccccc2)N(C)C)cc1` (centres undefined), the Potency was inconclusive [inhibitor, single point]. In the case of `CCOC(=O)c1cnc2c(C)cc(C)cc2c1NCCN1CCOCC1`, the Potency is reported as active: 18.4 µM. With `c1ccc(N2CCOCC2)c(Nc2nc3ccccc3n3cnnc23)c1` the Potency was active: 20.6 µM. With `Cc1ccccc1CN1CCC(Oc2ccc(C(=O)NCc3ccccn3)cc2)CC1` the Potency was inconclusive [inhibitor, single point]. With `CC1(C(=O)N(CC(=O)NC2CCCC2)C2CCCC2)CC(=O)N=C2C=CC=CN21` (centres undefined) the “activity change, negative = growth inhibition” value was inactive: -21.2%. In the case of `CC(=O)Nc1ccccc1-c1nc2ccc(C(=O)N3CCN(c4ccccc4)CC3)cc2[nH]c1=O`, the “activity change, negative = growth inhibition” value is reported as inactive: -16.7%. In the case of `CN1CCN(c2nc(NCCOC34CC5CC(CC(C5)C3)C4)nc(OCC(F)(F)F)n2)CC1`, the Potency is reported as inconclusive [inhibitor, single point]. With `O=C(NNC(=O)c1cccc(Br)c1)Nc1ccc(Cl)cc1` the Potency was active: 23.1 µM. With `COc1cc(O)c2c(=O)cc(-c3ccccc3)oc2c1` the Potency was inconclusive [inhibitor, single point]. For `CCCn1nc(C(=O)Nc2cccc(S(=O)(=O)N3CCOCC3)c2)c2ccccc2c1=O`, the Potency was inconclusive [inhibitor, single point]. In the case of `Cc1ccc(-n2nc(C)c3c2C(Br)C(C)(C)CC3=O)nc1` (centres undefined), the Potency is reported as inconclusive [inhibitor, partial curve, poor fit]. For `COc1ccc(C2/C=C\CN3CCC[C@H]3C(=O)N2Cc2ccc(F)cc2)cc1` (some centres undefined), the Potency was inconclusive [inhibitor, single point]. For `COc1ccc([C@H]2CC(=O)C=C(c3ccccc3-c3ccccc3)C2)cc1`, the Potency was active: 23.1 µM. In the case of `C=C(C)[C@@H]1C2=CC(C(=O)OC)=C(C[C@@H](C(=C)C)[C@H]3O[C@H]3C3=C[C@H]1OC3=O)O2`, the Potency is reported as active: 1.12 µM. With `Cc1ccc(C)c(OCc2nc3ccccc3n2C)c1` the Potency was inconclusive [inhibitor, single point]. With `C=CCNC1=C(Cl)C(=O)c2ccccc2C1=O` the Potency was active: 14.6 µM. With `CSc1nc(-c2ccco2)nn1C(=O)c1ccccc1` the Potency was inconclusive [inhibitor, single point]. With `O=S(=O)(/N=C(/Nc1ccccc1)c1ccccc1O)c1ccccc1` the “activity change, negative = growth inhibition” value was inactive: -1.04%. In the case of `Cc1ccc(S(=O)(=O)N(C)C[C@H]2Oc3ncc(-c4ccccc4)cc3C(=O)N([C@@H](C)CO)C[C@@H]2C)cc1`, the Potency is reported as inconclusive [inhibitor, single point]. For `CCc1ccc(-c2nc(CS(=O)CC(=O)O)c(C)o2)cc1` (centres undefined), the Potency was inconclusive [inhibitor, single point]. In the case of `Cc1ccccc1C1c2[nH]c3ccccc3c2C[C@H]2C(=O)N(c3ccccc3C(=O)NCCN3CCOCC3)C(=O)N12` (some centres undefined), the Potency is reported as inconclusive [inhibitor, single point]. With `CC(C)CC(=O)N1CC=CC[C@@H](c2ccc(Cl)cc2)N(Cc2ccc(Cl)cc2)C(=O)[C@@H]1Cc1ccccc1` the Potency was active: 14.6 µM. For `O=C(Nc1ccccc1)OC1CCC2CC1CCC2OC(=O)Nc1ccccc1` (centres undefined), the Potency was active: 13 µM. For `N#Cc1c(-c2ccccc2)c(-c2ccccc2)n(Cc2ccco2)c1NC(=O)c1cccs1`, the Potency was active: 11.2 µM. For `O=C(Oc1ccc(F)cc1C(=O)/C=C/c1cccs1)c1cccc([N+](=O)[O-])c1`, the Potency was active: 0.164 µM. In the case of `COc1cc(CN2CCCC(CO)(Cc3cccc(Cl)c3)C2)cc(OC)c1O` (centres undefined), the Potency is reported as inconclusive [inhibitor, partial curve]. With `NS(=O)(=O)c1ccc2nc(NC(=O)COc3ccccc3)sc2c1` the “activity change, negative = growth inhibition” value was inactive: -3.67%. With `N#CC1=C(N)Oc2n[nH]c(-c3cccs3)c2C1c1cccnc1` (centres undefined) the Potency was inconclusive [inhibitor, partial curve]. In the case of `CCC(C(N)=O)N1C(=O)C2C3CCC(C3)C2C1=O` (centres undefined), the “activity change, negative = growth inhibition” value is reported as inactive: 0.203%. With `COc1ccc(CCC(=O)NCCc2csc(-c3ccc(Cl)cc3)n2)cc1` the Potency was active: 23.1 µM. In the case of `CCOC(=O)c1c(N)sc(C(=O)N2CCCCCC2)c1C`, the Potency is reported as inconclusive [inhibitor, single point]. With `CC(C)C(NS(=O)(=O)c1ccc2c(c1)oc(=O)n2C)C(=O)NCCc1ccc(Cl)cc1` (centres undefined) the “activity change, negative = growth inhibition” value was inactive: -5.75%. In the case of `Cc1noc(C)c1S(=O)(=O)N(C)CC(=O)Nc1ccc(F)cc1`, the “activity change, negative = growth inhibition” value is reported as inactive: -9.04%. With `CCc1ccc(/C=C2\SC(=S)N(CCCC(=O)N3CCN(C)CC3)C2=O)cc1` the Potency was inconclusive [inhibitor, single point]. With `CCOc1ccc(Nc2c(S(=O)(=O)c3ccccc3)cnc3ccccc23)cc1` the Potency was inconclusive [inhibitor, single point]. With `NS(=O)(=O)c1ccc(NC(=O)CSC2CCCCC2)cc1` the Potency was active: 16.4 µM. For `COc1cc(C(=O)N/N=C/C2CC=CCC2)cc(OC)c1OC` (centres undefined), the “activity change, negative = growth inhibition” value was inactive: -6.46%. In the case of `CC(=O)/C(N=Nc1ccc(C(=O)O)cc1[N+](=O)[O-])=C(\C)O`, the “activity change, negative = growth inhibition” value is reported as inactive: -1.2%. For `Cc1ccc2cccc(NC(=O)c3ccc(-c4cccc(Cl)c4)o3)c2n1`, the “activity change, negative = growth inhibition” value was inactive: 4.45%. With `CCCNC(=S)Nc1ccc(Oc2ccccc2)cc1` the Potency was inconclusive [inhibitor, single point]. In the case of `COc1cc(CC(C#N)(CO)c2nc3ccccc3[nH]2)ccc1OC(F)F` (centres undefined), the “activity change, negative = growth inhibition” value is reported as inactive: 2.07%. With `Cc1cc(OC(=O)C(C)(C)C)c([N+](=O)[O-])c(=O)[nH]1` the “activity change, negative = growth inhibition” value was inactive: -4.66%. With `COc1ccc(OC)c(-c2cc(C(=O)Nc3ccccc3C(N)=O)c3ccccc3n2)c1` the Potency was active: 20.6 µM. For `CCC(C)[C@H](N)C(=O)N[C@H]1CCC2C3CC=C4C[C@@H](O)CC[C@]4(C)C3CC[C@@]21C` (some centres undefined), the Potency was inconclusive [inhibitor, single point]. In the case of `O=C(NCc1ccco1)C(=O)c1c[nH]c2ccccc12`, the Potency is reported as inconclusive [inhibitor, single point]. In the case of `Cc1ccc(NC(=O)c2nc(S(C)(=O)=O)ncc2N(Cc2ccco2)Cc2ccco2)cc1C`, the Potency is reported as inconclusive [inhibitor, single point]. With `CN(C(=O)COC(=O)CN1C(=O)C2CC=CCC2C1=O)c1ccccc1` (centres undefined) the “activity change, negative = growth inhibition” value was inactive: -6.43%. For `CN(Cc1ccco1)S(=O)(=O)c1nnc(NC(=O)c2cccc(Cl)c2)s1`, the Potency was inconclusive [inhibitor, single point]. In the case of `Nc1cc(S(=O)(=O)N2CCCCC2)ccc1Oc1ccccc1`, the Potency is reported as inconclusive [inhibitor, partial curve]. With `O=C(COc1ccccc1F)Nc1cc(S(=O)(=O)N2CCOCC2)ccc1N1CCOCC1` the “activity change, negative = growth inhibition” value was inactive: -11.8%. With `O=C(O)CCCn1cc(NC(=O)c2cccc(F)c2)cn1` the “activity change, negative = growth inhibition” value was inactive: 1.94%. For `COc1cc(C2c3cc4c(cc3C(O)C3COCC23)OCO4)cc(OC)c1OC` (centres undefined), the Potency was inconclusive [inhibitor, single point]. In the case of `O=C(C1CCCN(c2ncnc3c2nc2n3CCCCC2)C1)N1CCN(c2ccc(Cl)cc2)CC1` (centres undefined), the Potency is reported as inconclusive [inhibitor, single point]. With `O=C(CC1SC(=Nc2ccccc2)N(Cc2ccccn2)C1=O)Nc1cccc(Cl)c1` (centres undefined) the Potency was inconclusive [inhibitor, single point]. In the case of `COc1ccccc1CNC(=O)c1cc(C(=O)CC(C)C)c[nH]1`, the Potency is reported as inconclusive [inhibitor, single point]. For `Cc1ccc(NC(=O)c2c(C)oc3ccc(O)c(CN4CCCCC4)c23)c(C)c1`, the Potency was active: 11.6 µM. With `Clc1nc(NCc2cccs2)c2[nH]cnc2n1` the Potency was active: 12.6 µM. With `COc1ccc(C)cc1NC(=O)C(c1ccccc1)N1CCN(CC(=O)N2CCCC2)CC1` (centres undefined) the Potency was inconclusive [inhibitor, partial curve, poor fit]. In the case of `Cc1cc(N2CCN(C)CC2)n2cc(-c3ccc(F)cc3)nc2n1`, the “activity change, negative = growth inhibition” value is reported as inactive: -6.58%. In the case of `CCOc1cccc(C2C=C(c3ccc4c(c3)OCO4)NC(c3ccc(Cl)cc3)N2)c1O` (centres undefined), the Potency is reported as active: 10 µM. With `Cc1ccc(/C=N/n2cnc3sc4c(c3c2=O)CCCC4)o1` the “activity change, negative = growth inhibition” value was inactive: -21%. With `O=C(c1ccc2c(c1)OCO2)N1CCN(c2ccccc2F)CC1` the “activity change, negative = growth inhibition” value was inactive: -10.9%. In the case of `CCS(=O)(=O)N1CCN(C(=O)C(c2ccccc2)c2ccccc2)CC1`, the “activity change, negative = growth inhibition” value is reported as inactive: 2.26%. For `CCOC(=O)N1CCC(NC(=O)c2ccc3c(c2)N=C(C)c2ccccc2S3)CC1`, the Potency was inconclusive [inhibitor, single point]. With `CCOC(=O)CCCc1sc(N)nc1-c1[nH]c(=O)[nH]c1C` the Potency was inconclusive [inhibitor, single point]. For `Cc1ccc(OCC(=O)NNC(=O)c2ccc3c(=O)n4c(nc3c2)CCC4)cc1`, the “activity change, negative = growth inhibition” value was inactive: 0.624%. For `C#CCOc1ccccc1/C=N/NC(=O)c1ccccc1OCc1ccccc1`, the Potency was inconclusive [inhibitor, single point].
